# Values joined by “and” are separate entries in the source; they are usually repeats but may differ in a detail not shown here. Equal values may be shown once. Inconclusive results, whose numbers are uncertain, are shown with a selection of clear calls. For part of these data: Where the call is inconclusive, the potency comes from a doubtful curve fit. Active and inactive are the calls of the source. Unless noted, the call rests on the fitted dose curve; in most records, active means well fitted curve in the direction sought with a large enough effect in the repeat runs; inconclusive means weak or mixed curves; inactive means no such curve, though single readings can be large; an effect the other way counts as inactive or inconclusive.
# Columns and labels:
# [1] = Caspase-3/7 induction in HepG2 cells by small molecules, qHTS assay (AID 1346978); further: nearly all actives have a fitted effect of over 15% in size
# Procedure, shortened: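 Wild-type HepG2 cells, 2,000/well, settled 5 hr at 37 C and 5% CO2, then compound-treated for 17 hr; caspase-3/7 activity read by luminescent Caspase-Glo 3/7 after 30 min at room temperature.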
# [2] = biological target: Nuclear receptor subfamily 1 group I member 2 (Rattus norvegicus) (UniProt Q9R1A7); test: Rat pregnane X receptor (rPXR) activation by small molecules, qHTS assay (AID 1346983); details: rPXR luciferase reporter cells, One-Glo luminescence, 24 h; max activation: stronger effect = higher value; further: nearly all actives have a fitted effect of over 20% in size
# Sequence of UniProt Q9R1A7 (Q9R1A7 whole entry, looked up): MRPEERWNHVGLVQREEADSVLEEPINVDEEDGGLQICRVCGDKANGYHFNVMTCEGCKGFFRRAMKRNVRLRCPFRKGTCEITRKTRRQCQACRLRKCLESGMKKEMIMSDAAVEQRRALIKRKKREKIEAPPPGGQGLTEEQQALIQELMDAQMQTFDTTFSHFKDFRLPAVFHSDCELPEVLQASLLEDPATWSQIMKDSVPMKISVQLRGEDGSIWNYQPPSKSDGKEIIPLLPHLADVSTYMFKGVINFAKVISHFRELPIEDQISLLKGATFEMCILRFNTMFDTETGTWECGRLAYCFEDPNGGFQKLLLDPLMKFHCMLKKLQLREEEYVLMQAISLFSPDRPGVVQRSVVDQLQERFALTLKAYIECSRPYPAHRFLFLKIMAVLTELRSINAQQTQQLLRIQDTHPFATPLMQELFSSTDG
# Procedure, shortened: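 Cell-based rPXR activation assay: rPXR cells, 2,000 per well, rested 5hr at 37 C, then exposed to compounds in DMSO for 24 hr at 37 C. Luciferase activity read by One-Glo luminescence after 30 min at room temperature.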
# [3] = biological target: Nuclear receptor subfamily 1 group I member 2 (Homo sapiens) (UniProt O75469); test: CYP3A4 induction through human pregnane X receptor (PXR) by small molecules, qHTS assay (AID 1346984); further: nearly all actives have a fitted effect of over 40% in size; on activation: on the % scale 0 is the no-effect control and ±100 the full control effect
# Procedure, shortened: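 After 24 h at 37C with compound, DPX-2 cells (HepG2, co-transfected PXR response element and CYP3A4 promoter-luciferase) got 3uM final P450-Glo Luciferin-IPA for 3 h; One-Glo luminescence followed.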
# [4] = qHTS assay to identify small molecule antagonists of the progesterone receptor (PR) signaling pathway - cell viability counter screen (AID 1346798); further: nearly all actives have a fitted effect of over 50% in size; on activity change, negative = cytotoxicity: on the % scale 0 is the no-effect control and ±100 the full control effect
# Procedure, shortened: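 In the same plates used for the beta-lactamase readout, cell viability of compound- and R5020-treated PR-UAS-bla HEK293T cells (16 hr, 37C) was assessed by CellTiter-Glo luminescence.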
# [5] = qHTS assay to identify small molecule agonists of the progesterone receptor (PR) signaling pathway - cell viability counter screen (AID 1346799; calls by dose curve; further: nearly all actives have a fitted effect of over 45% in size)
# Procedure, shortened: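 Multiplexed viability read: CellTiter-Glo luminescence, 30 min RT, following LiveBLAzer FRET measurement on PR-UAS-bla HEK293T cells exposed to compounds 16 hr.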
# [6] = biological target: Cytochrome P450 2C19 (Homo sapiens) (UniProt P33261); test: Cytochrome P450 Family 2 Subfamily C Member 19 (CYP2C19) small molecule antagonists: luciferase reporter qHTS assay (AID 1671197); further: nearly all actives have a fitted effect of over 65% in size
# Sequence of UniProt P33261 (P33261 whole entry, looked up): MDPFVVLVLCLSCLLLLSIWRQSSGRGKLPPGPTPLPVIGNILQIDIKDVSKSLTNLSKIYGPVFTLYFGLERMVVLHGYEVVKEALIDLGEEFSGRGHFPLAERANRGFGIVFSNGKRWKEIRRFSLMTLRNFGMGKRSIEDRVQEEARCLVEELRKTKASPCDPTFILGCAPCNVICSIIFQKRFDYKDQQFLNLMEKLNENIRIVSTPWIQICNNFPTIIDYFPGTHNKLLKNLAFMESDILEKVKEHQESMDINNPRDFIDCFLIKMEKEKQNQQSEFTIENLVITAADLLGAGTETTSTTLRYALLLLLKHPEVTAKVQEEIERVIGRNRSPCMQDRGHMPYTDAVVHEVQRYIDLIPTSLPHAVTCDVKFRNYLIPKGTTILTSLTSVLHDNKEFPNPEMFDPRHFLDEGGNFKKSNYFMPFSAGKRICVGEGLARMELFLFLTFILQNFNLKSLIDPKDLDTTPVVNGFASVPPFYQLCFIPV
# Procedure, shortened: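 First, compounds are pinned into enzyme-substrate mix and held 10 min at room temperature. Second, NADPH regeneration solution is added and plates incubate 1 h at 37C. Third, detection reagent is added and luminescence read after 20 min.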
# [7] = biological target: Cytochrome P450 2C9 (Homo sapiens) (UniProt P11712); test: Cytochrome P450 Family 2 Subfamily C Member 9 (CYP2C9) small molecule antagonists: luciferase reporter qHTS assay (AID 1671198); further: nearly all actives have a fitted effect of over 50% in size
# Sequence of UniProt P11712 (P11712 whole entry, looked up): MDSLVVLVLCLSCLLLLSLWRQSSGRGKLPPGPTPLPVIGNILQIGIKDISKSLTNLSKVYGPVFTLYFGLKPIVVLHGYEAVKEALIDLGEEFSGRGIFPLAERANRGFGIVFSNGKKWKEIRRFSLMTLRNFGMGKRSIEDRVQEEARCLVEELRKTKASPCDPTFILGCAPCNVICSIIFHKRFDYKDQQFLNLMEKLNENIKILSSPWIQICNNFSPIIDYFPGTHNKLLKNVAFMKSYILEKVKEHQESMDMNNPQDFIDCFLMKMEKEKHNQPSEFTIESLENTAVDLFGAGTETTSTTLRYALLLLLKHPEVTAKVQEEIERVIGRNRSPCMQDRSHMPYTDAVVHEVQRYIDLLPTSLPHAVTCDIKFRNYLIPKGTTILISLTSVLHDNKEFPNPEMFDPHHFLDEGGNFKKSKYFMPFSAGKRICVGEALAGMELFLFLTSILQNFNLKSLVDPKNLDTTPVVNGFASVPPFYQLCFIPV
# Procedure, shortened: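 P450-Glo proluciferin substrate with CYP2C9 enzyme; 10 min RT preincubation, then NADPH regeneration 1 h at 37C; luciferin detection reagent 20 min RT, luminescence in relative luminescence units.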
# [8] = Human pregnane X receptor (PXR) small molecule agonists, qHTS cell viability counter screen (AID 1346977); further: nearly all actives have a fitted effect of over 50% in size; on activity change, negative = cytotoxicity: on the % scale 0 is the no-effect control and ±100 the full control effect
# Procedure, shortened: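 In each well, the PXR reporter HepG2 line was checked for viability: CellTiter-Fluor reagent added 23hr post-dosing, fluorescence read after 1hr incubation at 37C.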
# [9] = qHTS assay to identify small molecule agonists of the TGF-beta/Smad signaling pathway (AID 1346859; active means well fitted activation curve with a large enough effect in the signal ratio in the repeat runs, not every such curve was filed as active; inconclusive means weak or mixed curves; the % refers to the signal ratio; on activation: on the % scale 0 is the no-effect control and ±100 the full control effect); details: SBE-bla HEK293T, TGF-beta/Smad beta-lactamase reporter, 5 h; activation: at 76.8 µM (top of the series)
# Procedure, shortened: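 Screening used HEK 293T SBE-bla cells at 4,000/well. Test agents: 5 hr, 37 C. Detection: FRET substrate, 2 hr RT, then excitation 405 nm with emissions at 460 and 530 nm.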
# [10] = Caspase-3/7 induction in CHO-K1 cells by small molecules, qHTS cell viability counter screen (AID 1346979); details: CellTiter-Fluor fluorescence, 17 h; activity change, negative = cytotoxicity: at 92.4 µM (top of the series); further: nearly all actives have a fitted effect of over 35% in size
# Procedure, shortened: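 Following a 5hr settling period, CHO-K1 cells at 1,500 per well received DMSO-dissolved compounds. Cell viability was quantified 16hr later by CellTiter-Fluor fluorescence, measured after 1hr with reagent at 37C.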
# [11] = biological target: Cytochrome P450 2D6 (Homo sapiens) (UniProt P10635); test: Cytochrome P450 Family 2 Subfamily D Member 6 (CYP2D6) small molecule antagonists: luciferase reporter qHTS assay (AID 1671196); further: nearly all actives have a fitted effect of over 50% in size
# Sequence of UniProt P10635 (P10635 whole entry, looked up): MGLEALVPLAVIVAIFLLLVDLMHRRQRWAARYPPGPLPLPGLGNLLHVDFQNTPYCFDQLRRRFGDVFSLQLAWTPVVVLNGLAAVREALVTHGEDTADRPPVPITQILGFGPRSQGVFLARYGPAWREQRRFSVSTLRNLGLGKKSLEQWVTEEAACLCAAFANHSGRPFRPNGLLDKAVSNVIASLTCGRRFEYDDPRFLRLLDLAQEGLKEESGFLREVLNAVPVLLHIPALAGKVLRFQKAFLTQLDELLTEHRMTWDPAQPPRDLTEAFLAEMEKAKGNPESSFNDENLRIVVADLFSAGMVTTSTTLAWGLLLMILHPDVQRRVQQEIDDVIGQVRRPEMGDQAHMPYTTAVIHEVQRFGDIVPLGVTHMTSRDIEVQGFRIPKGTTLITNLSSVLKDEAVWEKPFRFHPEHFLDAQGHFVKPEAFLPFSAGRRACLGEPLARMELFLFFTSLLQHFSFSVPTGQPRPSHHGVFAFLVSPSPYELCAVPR
# Procedure, shortened: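 Chemicals tested for interference with CYP2D6 activity; proluciferin substrate, NADPH regeneration, 1 h at room temperature, luminescent detection.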
# [12] = qHTS assay to identify small molecule antagonists of the TGF-beta/Smad signaling pathway - cell viability counter screen (AID 1346824); further: nearly all actives have a fitted effect of over 50% in size
# Procedure, shortened: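 SBE-bla HEK 293T cells, incubated overnight, then compound plus 0.25 ng/mL TGF-beta1 (stock added) for 5 hr at 37 C. Viability was read in the same wells by CellTiter-Glo luminescence after 30 min at room temperature.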
# [13] = qHTS assay to identify small molecule antagonists of the TGF-beta/Smad signaling pathway (AID 1346924; active means well fitted inhibition curve with a large enough effect in the signal ratio in the repeat runs, not every such curve was filed as active; inconclusive means weak or mixed curves; the % refers to the signal ratio); details: SBE-bla HEK293T, TGF-beta/Smad reporter, beta-lactamase ratio; activity, negative = inhibition: at 76.8 µM (top of the series) unless noted
# Procedure, shortened: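 Read-out was FRET-substrate fluorescence (405 nm excitation; 460 and 530 nm emission) after 2 h at room temperature. Before that, cells carrying a Smad-binding-element beta-lactamase reporter in HEK 293T had been stimulated 5 h at 37 C with TGF-beta1 (0.25 ng/mL addition solution) in the presence of test compound.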
# [14] = Caspase-3/7 induction in HepG2 cells by small molecules, qHTS cell viability counter screen (AID 1346981); further: nearly all actives have a fitted effect of over 30% in size
# Procedure, shortened: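 Treatment of HepG2 cells with DMSO-delivered compounds ran 16 hr at 37 C following a 5-hr pre-incubation of 2,000 cells/well. CellTiter-Fluor fluorescence, read after 1 hr, served as the viability measure in a qHTS format.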
# [15] = biological target: Nuclear receptor subfamily 1 group I member 2 (Homo sapiens) (UniProt O75469); test: Human pregnane X receptor (PXR) small molecule agonists, qHTS assay (AID 1346982); further: nearly all actives have a fitted effect of over 35% in size
# Procedure, shortened: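 Stable HepG2 line reporting PXR-mediated CYP3A4 expression via luciferase. Treatment: 24 hr with compounds in DMSO at 37 C. Detection: ONE-Glo luminescence.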
# Potency means the concentration at half of the fitted maximal effect; tags describe the fitted curve by direction and shape or compound fluorescence and quenching.
compound,measurement,setting,value
CO[C@H]1C=CO[C@@]2(C)Oc3c(C)c(O)c4c(O)c(c5c(c4c3C2=O)=NC2(CCN(CC(C)C)CC2)N=5)NC(=O)/C(C)=C\C=C/[C@H](C)[C@H](O)[C@@H](C)[C@@H](O)[C@@H](C)[C@H](OC(C)=O)[C@@H]1C,Potency,[1],inconclusive: 59.8 µM [activator]
COc1ccc2[nH]c(S(=O)Cc3ncc(C)c(OC)c3C)nc2n1 (configuration not stated),Potency,[2],"inconclusive: 22.4 µM [activator, partial curve]"
CN1CCCCC1CCN1c2ccccc2Sc2ccc(S(C)=O)cc21 (configuration not stated),Potency,[3],"inconclusive: 17.8 µM [activator, partial curve, poor fit]"
CCCCCC[C@@H](O)C/C=C\CCCCCCCC(=O)O,Potency,[4],"inconclusive: 77 µM [cytotoxic, single point]"
same,Potency,[5],"inconclusive: 48.6 µM [cytotoxic, partial curve, poor fit]"
same,Potency,[6],"inconclusive: 89.4 µM [inhibitor, single point]"
same,Potency,[7],"inconclusive: 79.6 µM [inhibitor, single point]"
Cc1cc(-n2nc3ccc(Cl)cc3n2)c(O)c(C(C)(C)C)c1,Potency,[4],"inconclusive: 3.35 µM [cytotoxic, single point]"
same,Potency,[8],inactive
same,Potency,[3],inactive
CC(C)=CCC[C@](C)(O)[C@@H]1CC=C(C)CC1,Potency,[4],"inconclusive: 0.969 µM [cytotoxic, single point]"
same,Potency,[9],inactive
same,Potency,[10],"inconclusive: 77 µM [cytotoxic, single point]"
same,Potency,[11],"inconclusive: 71 µM [inhibitor, partial curve]"
CCCCOC(=O)CCS,Potency,[4],"inconclusive: 1.37 µM [cytotoxic, single point]"
same,Potency,[12],"inconclusive: 5.49 µM [cytotoxic, single point]"
same,"activity, negative = inhibition",[13],inconclusive: -0.487%
same,Potency,[6],"inconclusive: 89.4 µM [inhibitor, single point]"
O=C1c2ccccc2C(=O)c2c(O)ccc(O)c21,Potency,[4],"inconclusive: 0.969 µM [cytotoxic, single point]"
same,Potency,[9],"inconclusive: 30.9 µM [rising, partial curve]"
same,Potency,[8],"inconclusive: 24.3 µM [cytotoxic, full curve]"
CN1C[C@@H]2C[C@H]1CN2c1cc2c(cc1F)c(=O)c(C(=O)O)cn2C1CC1,Potency,[4],"inconclusive: 14.6 µM [rising, partial curve, poor fit]"
same,"activity change, negative = cytotoxicity",[8],inactive: -0.63% [at 19 µM]
O=C(O)CNC(=O)c1ccccc1I,Potency,[4],inactive
same,Potency,[9],inactive
same,Potency,[10],inactive
same,Potency,[6],"inconclusive: 43.6 µM [inhibitor, single point]"
Oc1c(Cl)cc(Cl)c(Cl)c1Cl,Potency,[4],"inconclusive: 23.8 µM [rising, full curve]"
same,Potency,[8],"inconclusive: 70.8 µM [cytotoxic, single point] and inconclusive: 77 µM [cytotoxic]"
same,Potency,[14],"inconclusive: 3 µM [cytotoxic, full curve, poor fit] and inconclusive: 77 µM [cytotoxic, single point]"
same,Potency,[6],inconclusive: 34.8 µM [inhibitor]
Sc1nc(S)nc(S)n1,Potency,[4],"inconclusive: 0.665 µM [cytotoxic, single point]"
same,Potency,[5],inactive
same,Potency,[7],"inconclusive: 27.4 µM [inhibitor, partial curve, poor fit]"
CCCCC(=O)O[C@]1(C(=O)CO)[C@@H](C)C[C@H]2[C@@H]3CCC4=CC(=O)C=C[C@]4(C)[C@@]3(F)[C@@H](O)C[C@@]21C,Potency,[4],"inconclusive: 21.7 µM [rising, single point]"
same,Potency,[9],"inconclusive: 17.4 µM [rising, partial curve]"
same,Potency,[13],"inconclusive: 21.9 µM [rising, partial curve]"
same,Potency,[10],"inconclusive: 68.6 µM [cytotoxic, single point]"
same,Potency,[14],"inconclusive: 68.6 µM [cytotoxic, single point]"
same,Potency,[15],active: 34.4 µM
CCC(CC)C(C)CCOC(C)=O (configuration not stated),Potency,[4],inactive
same,Potency,[9],inactive
same,Potency,[7],"inconclusive: 79.6 µM [inhibitor, single point]"
O=Nc1ccc(O)cc1,Potency,[4],inactive
same,Potency,[8],"inconclusive: 39.8 µM [cytotoxic, partial curve] and inactive"
same,Potency,[14],"inconclusive: 67 µM [cytotoxic, single point]"
same,Potency,[11],"inconclusive: 63.3 µM [inhibitor, partial curve, poor fit]"
same,Potency,[6],"inconclusive: 50.2 µM [inhibitor, partial curve, poor fit]"
same,Potency,[7],"inconclusive: 61.8 µM [inhibitor] and inconclusive: 63.3 µM [inhibitor, partial curve, poor fit]"
CCCCC(CC)COC(=O)c1ccccc1O (configuration not stated),Potency,[4],inactive
same,"activity, negative = inhibition",[13],inconclusive: -1.64% [at 35.3 µM]
same,Potency,[8],inactive
same,Potency,[15],inactive
same,Potency,[11],"inconclusive: 43.6 µM [inhibitor, single point]"
CCCCCCCCCCCC(=O)[O][Sn]([CH2]CCC)([CH2]CCC)[O]C(=O)CCCCCCCCCCC,Potency,[4],"inconclusive: 2.98 µM [cytotoxic, single point]"
same,"activity, negative = inhibition",[13],inconclusive: -0.12% [at 35.3 µM]
same,Potency,[11],inactive

# Source: PubChem BioAssay (Tox21)
